# From PubChem BioAssay (NCATS)
# Inconclusive results, whose numbers are uncertain, are shown with a selection of clear calls. For some of these results: No potency is given beside an inconclusive call; the fits are too rough. Active and inactive are the calls of the source. Calls follow the shape of the dose curve; as a rule, active = well fitted curve in the direction sought with a large enough effect; inconclusive = small, poorly fitted or top-dose-only effect, or another doubt; inactive = no such curve, though single readings can be large; an effect the other way counts as inactive or inconclusive.
# Experiments:
# [1] = biological target: Ubiquitin carboxyl-terminal hydrolase 1 (Homo sapiens) (UniProt O94782); test: Inhibitors of USP1/UAF1: Pilot qHTS (AID 504865);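 also: rhodamine fluorescence freed from ubiquitin-rhodamine substrate followed over time; nearly all actives have a fitted effect of over 35% in size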
# Procedure, shortened: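 Deubiquitinase activity followed as kinetic rhodamine fluorescence release from 150 nM Ub-Rho. 1 nM USP1/UAF1 with compound, after 15 min room-temperature preincubation, in HEPES pH 7.8 buffer containing TCEP, EDTA, BSA and Tween-20.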
# [2] = S16 Schwann cell viability assay (CellTiter-Glo assay) (AID 624031);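 also: cellular ATP luminescence as a viability measure; nearly all actives have a fitted effect of over 70% in size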
# Procedure, shortened: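 This viability control uses native rat S16 Schwann cells grown in DMEM plus 10% FBS. After a 24 h compound treatment at 37 °C, CellTiter-Glo luminescence reports ATP content, scaled against DMSO-treated and cell-free wells.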
# [3] = S16 Schwann cell PMP22 intronic element firefly luciferase assay (AID 624032); also: nearly all actives have a fitted effect of over 30% in size
# Procedure, shortened: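 Rat S16 Schwann cells stably carrying a PMP22 intronic element-driven Fluc reporter were seeded overnight, then exposed to compounds for 24 h at 37 °C. Luminescence was normalized to PTC124 (positive control) and DMSO (0% activity).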
# [4] = qHTS Assay for Identifying Gametocytocidal Compounds (AID 743244); conditions: P. falciparum 3D7 stage III-V gametocytes, alamarBlue, 72 h; max response: hits give low values
# Procedure, shortened: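 Compounds are pinned into medium, gametocytes (stage III–V, 3D7, 20,000 cells/well) added, and plates held 72 h at 37 °C in 5% CO2. AlamarBlue follows for 24 h before fluorescence reading.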
# [5] = P-glycoprotein substrates identified in KB-8-5-11 adenocarcinoma cell line, qHTS therapeutic library screen (AID 1346987); also: nearly all actives have a fitted effect of over 65% in size
# Procedure, shortened: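 KB-8-5-11, a colchicine-selected P-gp-overexpressing KB-3-1 subline, was grown without colchicine for the assay. Cells were seeded at 500 cells/well, dosed in concentration-response and incubated 72 h at 37 degree C, 5% CO2. Viability was read by CellTiter-Glo luminescence.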
# [6] = NS1 protein of Zika virus - qHTS assay to identify small molecule inhibitors in human HEK 293 cells (AID 1347053); also: nearly all actives have a fitted effect of over 55% in size
# Procedure, shortened: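 HEK 293; 20 h pre-culture, 37 C/5% CO2; cpd 1 h pre-infection; ZIKV MR766, MOI = 0.5, 24 h, 37 C; TR-FRET NS1 readout (two anti-NS1 Abs); norm. to no-virus vs infected.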
# [7] = qHTS of pediatric cancer cell lines to identify multiple opportunities for drug repurposing: Primary screen for TC32 cells (AID 1347089); also: nearly all actives have a fitted effect of over 60% in size
# Procedure, shortened: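 Luminescent ATP read-out (CellTiter-Glo) of metabolically active TC32 cells after 48 h exposure. Concentration-response curves came from 11-point (MIPE, 0.78 nM–46 µM) or 8-point (NPC, 0.59 nM–46 µM) primary titrations; follow-up used 11 points.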
# [8] = qHTS of pediatric cancer cell lines to identify multiple opportunities for drug repurposing: Primary screen for DAOY cells (AID 1347090); conditions: DAOY medulloblastoma viability, CellTiter-Glo luminescence, 48 h; activity change, negative = cytotoxic: at 46 µM (top of the series); also: nearly all actives have a fitted effect of over 55% in size
# Procedure, shortened: (§1)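 Eight- or eleven-point concentration series, 48 h treatment at 37 degrees C in growth media; readout CellTiter-Glo luminescence. Potency and efficacy were taken from the concentration-response curves.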
# [9] = qHTS of pediatric cancer cell lines to identify multiple opportunities for drug repurposing: Primary screen for SJ-GBM2 cells (AID 1347091)
# Procedure, shortened: as §1
# [10] = qHTS of pediatric cancer cell lines to identify multiple opportunities for drug repurposing: Primary screen for A673 cells (AID 1347092); conditions: A673 Ewing sarcoma viability, CellTiter-Glo ATP luminescence, 48 h; activity change, negative = cytotoxic: at 46 µM (top of the series); also: nearly all actives have a fitted effect of over 45% in size
# Procedure, shortened: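 Cell viability of A673 measured by CellTiter-Glo ATP luminescence after 48 hours compound exposure. Dilution series spanned 0.78 nM to 46 µM (MIPE, 11-point) or 0.59 nM to 46 µM (NPC, 8-point); bortezomib 2.3 uM positive control.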
# [11] = qHTS of pediatric cancer cell lines to identify multiple opportunities for drug repurposing: Primary screen for BT-37 cells (AID 1347094)
# Procedure, shortened: (§2)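 Primary screen of approved and investigational compounds on cells in growth media at 37 degrees C, 5% CO2. MIPE set at 11-point and NPC set at 8-point dilutions; viability scored by ATP-based luminescence at 48 hours.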
# [12] = qHTS of pediatric cancer cell lines to identify multiple opportunities for drug repurposing: Primary screen for NB-EBc1 cells (AID 1347095)
# Procedure, shortened: as §2
# [13] = qHTS of pediatric cancer cell lines to identify multiple opportunities for drug repurposing: Primary screen for U-2 OS cells (AID 1347096); also: nearly all actives have a fitted effect of over 50% in size
# Procedure, shortened: (§3)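 Cells (500-1,000/well) in growth media were settled 5 h at 37 degrees C, then given compounds for 48 h. Viability was read as CellTiter-Glo luminescence. Primary runs used MIPE at 11 points (0.78 nM-46 µM) and NPC at 8 points (0.59 nM-46 µM); follow-ups used 11 points.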
# [14] = qHTS of pediatric cancer cell lines to identify multiple opportunities for drug repurposing: Primary screen for NB1643 cells (AID 1347099); also: nearly all actives have a fitted effect of over 50% in size
# Procedure, shortened: as §2
# [15] = qHTS of pediatric cancer cell lines to identify multiple opportunities for drug repurposing: Primary screen for LAN-5 cells (AID 1347100)
# Procedure, shortened: as §3
# [16] = qHTS of pediatric cancer cell lines to identify multiple opportunities for drug repurposing: Primary screen for Rh18 cells (AID 1347102); also: nearly all actives have a fitted effect of over 65% in size
# Procedure, shortened: as §3
# [17] = qHTS of pediatric cancer cell lines to identify multiple opportunities for drug repurposing: Primary screen for OHS-50 cells (AID 1347103); also: nearly all actives have a fitted effect of over 40% in size
# Procedure, shortened: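 Cells (500-1,000/well) rested 5 h, then received compounds for 48 h; metabolically active cells were measured by CellTiter-Glo luminescence. Final concentrations spanned up to 46 µM (MIPE, 11-point) or 0.59 nM-46 µM (NPC, 8-point) in primary screens, 11-point in follow-ups.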
# [18] = qHTS of pediatric cancer cell lines to identify multiple opportunities for drug repurposing: Primary screen for RD cells (AID 1347104); also: nearly all actives have a fitted effect of over 55% in size
# Procedure, shortened: as §2
# [19] = qHTS of pediatric cancer cell lines to identify multiple opportunities for drug repurposing: Primary screen for Rh30 cells (AID 1347107); also: nearly all actives have a fitted effect of over 75% in size
# Procedure, shortened: as §3
# [20] = qHTS of pediatric cancer cell lines to identify multiple opportunities for drug repurposing: Primary screen for Rh41 cells (AID 1347108); also: nearly all actives have a fitted effect of over 70% in size
# Procedure, shortened: as §2
# [21] = tested on: Zika virus NS2B-NS3 protease; test: Primary screen GU AMC qHTS for Zika virus inhibitors (AID 1347154); also: nearly all actives have a fitted effect of over 70% in size
# Procedure, shortened: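 Unlinked Zika NS2B hydrophilic domain/NS3 protease domain noncovalent complex (25 nM final) in 10 mM Tris-HCl pH 8.0, 0.01% Tween 20, with AMC peptide substrate. Fluorescence (ex 340, em 450 nm) change over 15 min, room temperature; percent inhibition fitted to 4-parameter Hill equation.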
# [22] = qHTS to identify inhibitors of the type 1 interferon - major histocompatibility complex class I in skeletal muscle: primary screen against the NCATS Pharmaceutical Collection (AID 1347407); conditions: human skeletal muscle cells, IFN-b-induced MHC-I HiBiT luminescence, 24 h; series mostly up to 45.9 µM;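 also: luminescence of HiBiT knocked into endogenous HLA-B as interferon-induced MHC class I level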
# Procedure, shortened: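 Compounds […] were added to CRISPR-engineered HLA-B-HiBiT C25cl48 human myoblasts with 4.0 ng/ml IFN-beta. After 24 hrs at 37 C, cells were lysed and HiBiT luminescence measured.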
# Potency is read from the fitted curve at half-maximal effect; tags tell the direction and shape of the fitted curve.
# UniProt O94782, sequence (O94782 whole entry, looked up): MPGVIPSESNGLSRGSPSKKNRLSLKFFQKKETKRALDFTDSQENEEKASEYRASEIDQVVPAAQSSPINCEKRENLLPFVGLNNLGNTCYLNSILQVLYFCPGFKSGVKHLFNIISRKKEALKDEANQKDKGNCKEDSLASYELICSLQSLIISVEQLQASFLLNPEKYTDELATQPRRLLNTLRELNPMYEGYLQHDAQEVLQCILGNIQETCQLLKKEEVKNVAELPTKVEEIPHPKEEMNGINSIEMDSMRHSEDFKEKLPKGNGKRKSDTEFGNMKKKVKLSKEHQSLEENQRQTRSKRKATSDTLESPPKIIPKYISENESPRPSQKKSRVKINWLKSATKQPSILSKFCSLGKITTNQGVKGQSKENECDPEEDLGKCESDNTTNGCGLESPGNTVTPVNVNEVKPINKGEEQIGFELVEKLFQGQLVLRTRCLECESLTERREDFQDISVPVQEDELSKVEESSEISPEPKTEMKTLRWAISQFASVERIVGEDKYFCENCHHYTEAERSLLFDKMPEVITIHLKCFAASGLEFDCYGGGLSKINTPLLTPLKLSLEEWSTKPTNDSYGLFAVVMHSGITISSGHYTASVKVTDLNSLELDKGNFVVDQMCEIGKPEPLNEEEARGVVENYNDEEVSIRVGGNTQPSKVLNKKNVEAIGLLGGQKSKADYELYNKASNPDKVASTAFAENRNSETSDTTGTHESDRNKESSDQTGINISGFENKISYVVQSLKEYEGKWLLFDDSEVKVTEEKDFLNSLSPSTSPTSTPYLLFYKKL
structure (smiles),measurement,setting,value
CCN(CC)CCOc1ccc(C(O)(Cc2ccc(Cl)cc2)c2ccc(C)cc2)cc1 (configuration not stated),Potency,[1],"inconclusive [inhibitor, partial curve, poor fit]"
same,Potency,[2],"inconclusive [cytotoxic, full curve, poor fit]"
same,Potency,[3],"inconclusive [inhibitor, partial curve, poor fit]"
same,Potency,[4],"inconclusive [inhibitor, single point]"
same,Potency,[5],"inconclusive [inhibitor, single point]"
same,Potency,[6],"inconclusive [inhibitor, single point]"
same,Potency,[7],"inconclusive [cytotoxic, single point]"
same,Potency,[8],"inconclusive [cytotoxic, single point]"
same,Potency,[9],"inconclusive [cytotoxic, single point]"
same,Potency,[10],"inconclusive [cytotoxic, single point]"
same,Potency,[11],"inconclusive [cytotoxic, single point]"
same,Potency,[12],"inconclusive [cytotoxic, single point]"
same,Potency,[13],"inconclusive [cytotoxic, single point]"
same,Potency,[14],"inconclusive [cytotoxic, single point]"
same,Potency,[15],active: 21.1 µM
same,Potency,[16],active: 23.7 µM
same,Potency,[17],active: 15.5 µM
same,Potency,[18],active: 21.1 µM
same,Potency,[19],"inconclusive [cytotoxic, single point]"
same,Potency,[20],"inconclusive [cytotoxic, single point]"
same,Potency,[21],"inconclusive [inhibitor, partial curve, poor fit]"
same,Potency,[22],"inconclusive [inhibitor, single point]"
